Test results taken from PubChem BioAssay AID485344 (National Center for Advancing Translational Sciences (NCATS), 2010).
About 6,900 (2%) of roughly 340,000 compounds were called active. No stated cut-off is given here; in the data, active means inhibition above about 30%; inactive means below that, where a call was filed. The list shows a part of the results, in another mix than the full data. Entries without a call were filed so in the source.

target: D(2) dopamine receptor (Homo sapiens) (UniProt P14416); assay: HTS Assay for Allosteric Antagonists of the Human D2 Dopamine Receptor: Primary Screen for Antagonists; conditions: HEK293 TREx D2 cells, calcium flux, dopamine EC80; at 10 µM; stronger effect = higher value; further: 0% is about no effect
Sequence of UniProt P14416 (P14416 whole entry, looked up): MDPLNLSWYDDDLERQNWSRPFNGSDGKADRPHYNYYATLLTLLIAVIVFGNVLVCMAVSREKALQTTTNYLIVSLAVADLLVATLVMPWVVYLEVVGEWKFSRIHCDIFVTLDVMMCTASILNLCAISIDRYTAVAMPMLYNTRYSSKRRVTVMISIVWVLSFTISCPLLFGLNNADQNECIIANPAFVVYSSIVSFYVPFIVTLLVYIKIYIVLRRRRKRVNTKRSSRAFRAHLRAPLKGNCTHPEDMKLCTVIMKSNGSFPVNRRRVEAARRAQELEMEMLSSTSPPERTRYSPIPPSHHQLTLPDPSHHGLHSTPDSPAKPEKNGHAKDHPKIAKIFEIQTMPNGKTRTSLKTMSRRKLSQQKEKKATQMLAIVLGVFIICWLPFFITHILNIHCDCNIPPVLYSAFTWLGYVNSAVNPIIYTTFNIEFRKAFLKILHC
Outline: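 Calcium flux kinetic readout in an inducible HEK293 TREx D2 line plated overnight at 30 C. After 180 s compound exposure, an EC80 dopamine challenge follows with another 180 s kinetic read to detect antagonism.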

SMILES | inhibition
Cc1ccc(CNc2ncnc3c2nc2n3CCCC2)cc1 | -1.26%
CCN(C(=O)CSc1nc2ccccc2n1CC(=O)NCc1ccc(OC)cc1)c1ccccc1 | 5.1%
Cc1ccc2nc(CSc3nnc(NC(=O)c4cccc(Br)c4)s3)cc(=O)n2c1 | -1.03%
CCOC(=O)c1cc(-c2ccccc2)n(CCC(=O)NC2CCCCC2)c1C | 6.99%
CCOC(=O)c1ccc(NC(=O)CN2c3ccccc3S(=O)(=O)c3ccccc32)cc1 | -6.83%
COc1cccc(CNC(=O)CCCN2C(=O)CCn3nc(-c4cccn4C)cc32)c1 | 3.88%
CCOC(=O)c1cccc(NC(=O)Cn2c(=O)nc(-c3ccccc3F)c3cc(Cl)ccc32)c1 | -3.86%
CCOc1ccc(CCNC(=O)c2csc3c2CCCCC3)cc1 | 25.8%
COc1ccccc1NC(=O)CSc1nnc2c3ccccc3n(C(C)C)c2n1 | 10.9%
COc1ccc(/C=C\c2onc(C)c2S(=O)(=O)N2CCC(C(=O)Nc3cccc(Cl)c3)CC2)cc1 | 9.55%
CCOC(=O)N1CCN(c2ncc3c(n2)CC(c2ccccc2O)CC3=O)CC1 (configuration not stated) | -0.848%
COc1ccc(CCNC(=O)CCc2c(C)nc3cc(-c4ccccc4OC)nn3c2C)c(OC)c1 | 1.28%
Cc1ccc(Nc2nnc(-c3cc4c(ccc5ccccc54)oc3=O)s2)cc1 | -7.81%
COc1cccc(C(=O)N2CCc3c([nH]c4ccccc34)C2c2ccc(SC)cc2)c1 (configuration not stated) | -14.9%
COC(=O)c1ccc(OCCN2CCCCCC2)cc1 | active: 55%
CNC(=O)C1CCC(Cn2c(=O)c3sccc3n(CC(=O)NCc3cccc(OC)c3)c2=O)CC1 (configuration not stated) | -16.9%
Cc1cc(C)cc(Nc2cc(C)nc3nncn23)c1 | -24.3%
CCC(CC)C(=O)Nc1ccc(-c2cn3cccnc3n2)cc1 | 11%
Cc1cccc(-c2nc3scc(CCNC(=O)c4ccc(Br)o4)n3n2)c1 | -9.18%
Cc1ccc(C)c(N2CCN(CCCNC(=O)C3COc4ccccc4C3)CC2)c1 (configuration not stated) | -16.8%
Cc1cccc(NC(=O)c2ccc(C(=O)Nc3cccc(C)c3C)cc2)c1C | -0.24%
CCC(=O)N1CCc2cc(Br)cc(S(=O)(=O)N3CCN(c4ccc(C(C)=O)cc4)CC3)c21 | -14.7%
CN1CCN(C(c2ccccc2Cl)c2sc3nc(-c4ccco4)nn3c2O)CC1 (configuration not stated) | 15.1%
O=C(CCCCn1c(=O)c2ccccc2n(Cc2ccc(Cl)cc2)c1=O)NCc1ccccc1Cl | 2.41%
Cc1cc(OC(C)C(=O)N(Cc2ccco2)Cc2ccccc2F)cc(C)c1Cl (configuration not stated) | -6.37%

SMILES | inhibition
COc1ccc(C)cc1NCc1nnc2n1CCCCC2 | -26.4%
Cc1ccc(CCNC(=O)C2CCN(c3nnc(C)c4c(C)n(-c5ccccc5)nc34)CC2)cc1 | 1.47%
COc1ccc(-c2cc(C(=O)Oc3cccc(C)c3)c3ccccc3n2)cc1 | -5.29%
COc1ccc(NC(=O)C2CCCN(C(=O)c3cnn(-c4ccc(F)cc4)c3-n3cccc3)C2)cc1 (configuration not stated) | 3.11%
Cn1c(=O)cc(OCC(=O)N2CCN(c3ccccc3)CC2)c2ccccc21 | 3.83%
COc1ccc(NC(=O)CSc2nc3ncccc3[nH]2)c(OC)c1 | 10.8%
CCOc1cccc2sc(N(Cc3cccnc3)C(=O)C3CCCCC3)nc12 | 8.09%
Cc1ccc(NC(=O)CSCc2cnn(-c3ccccc3)c2-n2cccc2)c(C)c1 | -8.39%
Cc1ccc(NC(=O)CSc2nc3ccccc3c3nc(CCn4cncc4C)nn23)cc1F | 3.02%
CCc1ccccc1NC(=O)c1ccc(F)c(S(=O)(=O)NC2CCCCCC2)c1 | 4%
CC1CCN(c2ccc(NC(=O)c3cccc(Cl)c3)cc2C(=O)O)CC1 | -7.24%
Cc1ccc(-c2cc(C(=O)NC(C)c3ccccc3)c3ccccc3n2)cc1C (configuration not stated) | -19.4%
CCCS(=O)(=O)c1ncc(Cl)c(C(=O)N2CCN(c3ccc(OC)cc3)CC2)n1 | 5.9%
Cc1ccc2ncc(C(=O)NCc3ccccc3Cl)c(=O)n2c1 | 4.84%
CCC(CC)C(=O)Nc1ccc(OCc2cc(=O)n3ccsc3n2)cc1 | -2.71%
CC(=O)Nc1ccccc1-c1nc2ccccc2n(CC(=O)c2ccc(C)c(C)c2)c1=O | 16.3%
Cc1cccc(C(=O)Nc2c3c(nn2-c2ccc(Cl)cc2)CS(=O)(=O)C3)c1 | 20.7%
CCOC(=O)c1ccc2c(c1)N(Cc1cccc(OC)c1)C(=O)c1ccccc1S2(=O)=O | -3.61%
CC(C)(C)OC(=O)N1CCC(c2c(C(=O)NC3CCN(Cc4ccccc4)CC3)cnn2-c2cccc(F)c2)CC1 | 11.2%
O=C(CSc1nc(-c2ccc(F)cc2)cc(C(F)(F)F)n1)NCc1ccccc1 | -13.9%
COc1cc(C2C(=O)N(C3CCCCC3)CC(=O)N2C2CCCC2)ccc1OC(C)C (configuration not stated) | 6.74%
CCCCNC(=O)CCC(=O)NNc1nc2ccccc2c2nc(-c3ccccc3)nn12 | 0.0497%
CC(=O)Nc1ccc(NC(=O)CCCc2nc(-c3ccc(C(C)(C)C)cc3)no2)cc1 | -2.13%
CC(=O)c1ccc(N2C(=O)N(Cc3cccc(C(F)(F)F)c3)c3ccccc3S2(=O)=O)cc1 | -21.7%
Cc1nc2scc(C)n2c(=O)c1S(=O)(=O)NCc1ccccc1Cl | 0.495%

SMILES | inhibition
Cc1ccc(CS(=O)(=O)c2cn(CC(=O)N(C)c3ccccc3)c3ccccc23)cc1 | -6.61%
CC1=C(C(=O)OC2CCCC2)C(c2ccc(F)cc2F)CC(=O)N1 (configuration not stated) | -3.95%
CCOc1cc(C(=O)Nc2ccc3oc(-c4ccc(F)cc4Cl)nc3c2)cc(OCC)c1OCC | 4.58%
COc1ccc(N(Cc2cccs2)C(=O)c2ccccc2C)cc1 | -13.6%
Cc1ccc(NC(=O)c2cc(C)nn2-c2ccccc2)cc1 | 11.5%
COc1ccccc1CNC(=O)CC1N=C2c3ccccc3N=C(SCC(=O)Nc3ccc(F)cc3)N2C1=O (configuration not stated) | 0.473%
COc1ccc(S(=O)(=O)Nc2cccc(-c3ccc(N4CCOCC4)nn3)c2)cc1F | 9.5%
O=C(Cn1nc(-c2ccccc2)ccc1=O)NCc1ccc(F)cc1Cl | -0.0872%
COc1ccccc1Nc1nn2c(=O)c3ccc(C(=O)N4CCC(C)CC4)cc3nc2s1 | -4.48%
O=C(c1nc(-c2ccc(Cl)cc2)n2c1CCCCC2)N1CCN(c2ccccc2F)CC1 | 6%
COc1cc(Cl)c(C)cc1NC(=O)CCc1c(C)nc2cc(-c3cccc(F)c3)nn2c1C | 17.3%
Cc1ccccc1NC(=O)c1c(NC(=O)C(C)Oc2cccc(Cl)c2)sc2c1CCCC2 (configuration not stated) | 12.3%
CCc1c(C)sc2c1CCN(C(=O)Nc1ccccc1C(F)(F)F)C2c1ccccc1 (configuration not stated) | -18.2%
O=C(CCn1cnc2onc(-c3ccc(F)cc3)c2c1=O)N1CCN(c2ccc(F)cc2)CC1 | -3.4%
CCn1c(C(=O)N2CCCC(C(=O)NCCCOC)C2)cc2sccc21 (configuration not stated) | 1.51%
COc1ccc2c(c1)cc1c(=O)n(CC(=O)NC3CCCCC3)nc(C)n12 | 13.4%
Cc1ccc(NC(=O)c2oc3ccccc3c2NC(=O)Cc2cccs2)cc1 | -11.7%
CCOc1ccccc1NC(=O)Nc1nnc(N(C)Cc2ccccc2)s1 | -2.5%
CCCCNCCCOc1cc(Cl)ccc1Cl | active: 56%
CCc1ccc(NC(=O)CC2C(=O)N(c3cccc(OC)c3)C(=O)N2Cc2ccco2)cc1 (configuration not stated) | 4.47%
Cc1ccc(C(Nc2ccccn2)c2ccc3cccnc3c2O)cc1 (configuration not stated) | -12.9%
COc1ccccc1NC(=O)CCS(=O)(=O)c1ccc2nc(C)sc2c1 | -3.21%
Cc1cccc(COc2ccc(/C=C3/C(=O)N(C)C(=S)N3C)cc2)c1 | active: 30.5%
CC(=O)N1CCC(N(C(=O)Nc2ccc(C)c(F)c2)C(C)C)CC1 | 0.318%
COc1cc(Cl)c(NS(=O)(=O)c2ccc3c(c2)CC(C)N3C(=O)C2CCC2)c(OC)c1 (configuration not stated) | -3.13%

SMILES | inhibition
CCOc1ccccc1N(CC)C(=O)Nc1cn(C)c(=O)c2ccccc12 | -9.96%
COc1ccc(OCC(=O)Nc2ccc(C(=O)OCc3cc(=O)n4nc(C)sc4n3)cc2)cc1 | 10.8%
Cc1ccc(/C=C/c2onc(C)c2S(=O)(=O)N2CCC(C(=O)N3CC(C)Oc4ccccc43)CC2)cc1 (configuration not stated) | 7.98%
CCCCCn1c(=O)[nH]c2cc(C(=O)N3CCN(c4ccccc4)CC3)ccc2c1=O | 1.87%
COc1ccc(OC)c(NC(=O)CSc2nncc(=O)n2N)c1 | active: 36%
COc1ccc(N2CCN(C(CNC(=O)CC(C)C)c3ccc4c(c3)OCO4)CC2)cc1 (configuration not stated) | -11.7%
CCc1cccc(CC)c1NC(=O)Cn1nnc2sc(-c3ccccc3)cc2c1=O | -0.0959%
COc1ccc(-c2nc(CS(=O)CC(=O)NCc3ccc(F)cc3)c(C)o2)cc1OC (configuration not stated) | -17.4%
Cc1ccc(-c2nc3ccc(Cl)cn3c2Nc2ccc3c(c2)OCCO3)o1 | 6.05%
CCCCOc1ccc(C2=NC(c3ccncc3)=Nc3ccc(Br)cc3N2)cc1 | 14.5%
CCOC(=O)N1CCN(S(=O)(=O)N2CCCC(C(=O)NCc3cc(OC)ccc3OC)C2)CC1 (configuration not stated) | -25.9%
Cc1nc(CC(=O)Nc2ccc(C)c(C)c2)cs1 | -18.4%
CCc1ccc(-n2c(SC(CC)C(=O)N(CC)CC)nc3n[nH]c(C)c3c2=N)cc1 (configuration not stated) | 18.8%
COc1ccc(N2CC(NC(=O)/C=C\c3ccc(OC)c(OC)c3)CC2=O)cc1 (configuration not stated) | -14.2%
CCOCCCNC(=O)C1CCCN(Cc2nc(-c3ccc(CC)cc3)oc2C)C1 (configuration not stated) | 2.92%
CCn1ccc2cc(S(=O)(=O)N3CCCN(C(=O)Nc4ccccc4OC)CC3)ccc21 | 28%
CCc1ccc(OCC(=O)N(Cc2cccs2)c2ccc(Cl)cc2)cc1 | 6.46%
COc1ccc(NC(=O)C2CCCN(CCCc3ccccc3)C2)cc1OCC(C)C (configuration not stated) | active: 79.7%
CCN(Cc1ccccc1)Cc1c(O)ccc2c(=O)c(-c3ccccc3OC)c(C(F)(F)F)oc12 | 17.2%
Cc1cccc(OCCSc2nc3ccccc3n2CC(=O)N2CCCCC2)c1C | 14.4%
CCOC(=O)c1ccc(N2CCN(c3cc(Cl)ccc3C)CC2)c(NC(=O)Nc2cccc(OC)c2)c1 | -10.3%
Cc1c(C)n(Cc2ccccc2)c2ccc(C(=O)NC(C)c3ccccc3)cc12 (configuration not stated) | 4.86%
